Measured values reported in patent CN109498565A.
Several values for one entry are separate records, joined by “and”; a condition that tells them apart may be missing. Equal values may be shown once.

Tests used:
[1] = molecular target: PD-1 on PD-1 Effector Cells (Promega) (UniProt Q15116); assay: cell-based or functional assay
PD-1抗原 = PD-1抗原 (UniProt Q15116); assay: competitive ELISA, PD-1 antigen coated, competitor PD-L1 at a fixed concentration; ratio to standard from fitted EC50

生物学活性检测结果 (relative to reference SYN125-RS02; NFAT-RE luminescence reporter, PD-1 Effector Cells + PD-L1 aAPC/CHO-K1 Cells) [1]: 76% and 87% | 平均比活性 (relative blocking activity against standard SYN125-RS02) (PD-1抗原): 105% and 85%
B1: 抗PD-1抗体SYN125 (antibody, part only; not given: nothing essential, part only)
heavy: QVTLKESGPALVKPTQTLTLTCTFSGFSLSTSGTCVSWIRQPPGKALEWLATICWEDSKGYNPSLKSRLTISKDTSKNQAVLTMTNMDPVDTATYYCARREDSGYFWFPYWGQGTLVTVSSASTKGPSVFPLAPCSRSTSESTAALGCLVKDYFPEPVTVSWNSGALTSGVHTFPAVLQSSGLYSLSSVVTVPSSSLGTKTYTCNVDHKPSNTKVDKRV[letters of human IgG4 Fc with S228P (EU numbers) omitted]
